± gives the standard deviation of the averaged measurements. The list shows a part of the results.

For this experiment, the system named is PfAP2-LT AP2 domain (GST-tagged). The experiment can be described thus: gcPBM binding intensity (ln(normalized median fluorescence intensity)); higher = stronger DNA binding. In outline:
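In this array assay, P. falciparum DNA-binding domains with a GST tag, expressed in E. coli, were applied for 1 h to primer-extended double-stranded 36-bp intergenic genomic probes and negative controls on an Agilent 4 × 180k array. Bound protein was visualised with Alexa488 anti-GST antibody at 488 nm. Binding intensity is the highest Masliner-normalised natural-log median intensity across replicate spots of either probe orientation.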
For the sequence “TAATTATTATTAAATACACACACATACCTCCATGTT [CACACA_site9134]”, the “gcPBM binding intensity (ln)” value stood at 9.51 ± 0.39.

As to “AAAAAAAAAAAATAGGTGCGTGTTACTTTTGTATGC [GTGCAC_site9524]”, the “gcPBM binding intensity (ln)” value was found to be 8.8 ± 0.33.

Regarding “TAAATACATAGATGTACACACATTACAGATGTACAT [CACACA_site4692]”, the “gcPBM binding intensity (ln)” value was determined as 9.1 ± 0.37.

As to “ATTTATAAAATTAATGCACACATCAGCATTTATAAA [CACACA_site1025]”, the “gcPBM binding intensity (ln)” value worked out at 8.7 ± 0.35.

In the case of “ATAAAGCACACCGACACACACATATTTATATTTATA [CACACA_site6620]”, the “gcPBM binding intensity (ln)” value turned out to be 9.68 ± 0.43.

As to “TTGTGTTATCCTTTTTTAGATCAACTATTTTTATTC [CACACA_negctrl_site145]”, the “gcPBM binding intensity (ln)” value was found to be 8.78 ± 0.5.

For the sequence “TATAAAATAAAAAATAAATATCTATATATATATATA [TGCATGCA_negctrl_site351]”, the “gcPBM binding intensity (ln)” value was found to be 8.97 ± 0.14.

Consider “AAAGGAAAATTAAAAAGTACACATTTGAAAAAAAAA [XGTACX_site2724]”, for which the “gcPBM binding intensity (ln)” value worked out at 8.6 ± 0.78.

In the case of “ATAATTTGTAAAAGGAGTACAAAACCATACTTTTTT [XGTACX_site6076]”, the “gcPBM binding intensity (ln)” value came out at 8.68 ± 0.23.

Consider “ATGTATTTAATAAGAACACACATATATTTAATTTAA [CACACA_site5606]”, for which the “gcPBM binding intensity (ln)” value was 8.77 ± 0.51.

In the case of “TTTTTTTTTTTAAGTTCACACATAAATTCGATTTAC [CACACA_site5057]”, the “gcPBM binding intensity (ln)” value amounted to 8.61 ± 0.47.

For “ACCGTTTTTGTGTAATGTACAAAATTTCTGACAGTG [XGTACX_site4999]”, the “gcPBM binding intensity (ln)” value worked out at 8.78 ± 0.4.

In the case of “ATAAGAAATGTAACTTGTACATAAGGATATATATTT [XGTACX_site236]”, the “gcPBM binding intensity (ln)” value is 8.92 ± 0.45.

Regarding “CATTTATATAAATACACACACACAAAAAAAAAAAAA [CACACA_site5459]”, the “gcPBM binding intensity (ln)” value was 9.38 ± 0.28.

On to “TAATAATAAAAAAATAGTACATAAATAAAAATAATA [XGTACX_site4774]”, for which the “gcPBM binding intensity (ln)” value came to 8.81 ± 0.51.

“TTTATACATTTATATTGTACTAATTCGATTTTATAT [XGTACX_site5424]”: the “gcPBM binding intensity (ln)” value was determined as 8.88 ± 0.47.

Regarding “AAAGAAAAAGAAAAAGAAAAATTAGAATATAAAATA [CACACA_negctrl_site792]”, the “gcPBM binding intensity (ln)” value was determined as 8.27 ± 0.69.

Consider “AATGATCATATATACACACACACAAAAAAAAAAAAA [CACACA_site4009]”, for which the “gcPBM binding intensity (ln)” value stood at 9.6 ± 0.45.

Consider “ATATACTATATATAATGTACATATATATTATTATGC [XGTACX_site2957]”, for which the “gcPBM binding intensity (ln)” value was 8.96 ± 0.35.

Regarding “ATAAGAAAATCAAAAAGTACTTTTTACAAAGATAAA [XGTACX_site824]”, the “gcPBM binding intensity (ln)” value is 8.52 ± 0.57.

With “TAGTTTTTTATATATTGTACAAATAATATATTATAT [XGTACX_site2564]”, the “gcPBM binding intensity (ln)” value was 8.71 ± 0.35.

Consider “ATTTTATGATATATTTGTACTTAACATTTGGATATA [XGTACX_site5888]”, for which the “gcPBM binding intensity (ln)” value stood at 8.77 ± 0.41.

In the case of AGTGACACCAAAGGGGTGCAATGAAATTAAAAATAT, the “gcPBM binding intensity (ln)” value was 8.92 ± 0.58.

With “TTTATTCATTTCTAAAAATATTAAAATAGAATGAAT [CACACA_negctrl_site325]”, the “gcPBM binding intensity (ln)” value came to 8.1 ± 0.26.

Consider “AAACAAAAAATATATACACACTAAACATAAAAAAAA [CACACA_site4185]”, for which the “gcPBM binding intensity (ln)” value worked out at 9.02 ± 0.46.

Values taken from the supplement of paper PMC11417369.
